# Reference: ChEMBL document CHEMBL1201862, “PubChem BioAssay data set” (2004)
# Test system: NCI-H322M
# Assay: NCI anticancer screen, dose series, 48 h
row,Compound,GI50
1,COC(=O)[C@]12CC[C@H]3CN(C(=O)OCc4ccccc4)[C@H]([C@H]31)[C@H](C(=O)OCC[Si](C)(C)C)N2S(=O)(=O)c1ccc(C)cc1,inactive: > 100 µM
2,O=C(Cc1ccccc1CCO)NCCc1ccccc1,inactive: > 100 µM
3,COc1cccc2c1C(=O)c1c(O)c3c(c(O)c1C2=O)C[C@@](O)(C(C)=O)C[C@@H]3OC1CC(N(Cc2ccccc2)Cc2ccccc2)C(O)C(C)O1 (stereo not given in full),inactive: 14.4 µM
4,[N-]=[N+]=NC(CI)c1cn([C@H]2C[C@H](O)[C@@H](CO)O2)c(=O)[nH]c1=O (stereo not given in full),inactive: > 100 µM
5,CC(=O)Nc1ccc2c(C)c3c4ccccc4n(C)c3nc2n1,inactive: 24.5 µM
6,CC1=C(N2CC2)C(=O)c2ccccc2C1=O,inactive: 2.34 µM
7,O=[N+]([O-])C(/C(Cl)=C(/Cl)N1CCOCC1)=C1\NCCO1,inactive: > 100 µM
8,Cc1ccc(C)c(/C(=N\N=C(N)N)C2CC2)c1,inactive: 30.1 µM
9,O=C(c1ccc(Cl)cc1)N(C(=O)N1CCCCC1)c1ccccc1,inactive: 65.6 µM
10,CC1=CC(=O)/C(=C/NC(=S)NCc2ccccc2)C(=O)O1,inactive: > 100 µM
11,O=C1c2cc3ccccc3cc2C2(c3ccc(Cl)cc3)N[C@H]3CCCC[C@@H]3N12 (stereo not given in full),inactive: 15.8 µM
12,CC(NC(=O)C(NC(=O)OC(C)(C)C)C(C)C)C(=O)NCC(=O)O (stereo not drawn) (Boc-Val-Ala-Gly-OH; configuration not given here),inactive: > 100 µM
13,COC(=O)[C@]1(c2cc3ccccc3n2S(=O)(=O)c2ccccc2)CC2CN(C(=O)OCc3ccccc3)C1C1OC(C)(C)OC21 (stereo not given in full),inactive: > 100 µM
14,Cc1cccc(C)c1NC(=O)CCC(=O)NC(N)=S,inactive: > 100 µM
15,COc1ccc(/N=N/c2c(-c3ccccc3)nn(C(=O)CC(=O)Nc3ccccc3Cl)c2-c2ccccc2)cc1,inactive: > 100 µM
16,Cc1c(/C=N/NC(=S)Nc2cccc(Cl)c2)c(=O)n(-c2ccccc2)n1C,inactive: 21.8 µM
17,Cc1ccc2nc(Cl)c(/C=N/N3C(=O)/C(=C/Cc4ccco4)N=C3c3ccccc3)cc2c1,inactive: > 71.9 µM
18,COC(=O)c1c(C#N)c(N)nc2c1CCC2,inactive: > 100 µM
19,CC(C)(NC(=O)OCc1ccccc1)C(=O)OC(=O)C(C)(C)NC(=O)OCc1ccccc1,inactive: > 100 µM
20,Cc1cccc2c(=O)c([Se]c3coc4c(C)cccc4c3=O)coc12,inactive: 4.95 µM
21,COc1cc(C)c(/C=C/C(=O)N2C(=O)OC[C@@H]2c2ccccc2)c(C)c1,inactive: > 100 µM
22,Cc1ccc(NC(=O)CSc2nc(O)nc3[nH]cnc23)cc1,inactive: > 100 µM
23,Cc1cc(Cl)ccc1NC(=O)C(=O)C(C(=O)c1ccccc1)C1OC(=O)c2ccccc21 (stereo not given),inactive: > 100 µM

row,Compound,GI50
1,CNc1ccc(N)cc1C(=O)N1CCC[C@H]1CO,inactive: > 100 µM
2,CC(C)(C)[C@@H]1NC(=O)CN1C(=O)OCc1ccccc1,inactive: > 100 µM
3,CC1(C)OC[C@@H](O)[C@H](Br)CO1,inactive: > 100 µM
4,c1csc(-c2ccc(-c3ccc(-c4cccs4)s3)s2)c1,inactive: > 100 µM
5,Cc1c(O)c(O)cc[n+]1C1OC(CO)C(O)C1O (stereo not given),inactive: > 100 µM
6,O=C1/C(=C\c2cccc(Oc3ccccc3)c2)SC(c2ccccc2)N1c1cccc([N+](=O)[O-])c1 (stereo not given),inactive: > 100 µM
7,CC1(C)COCN1COC1CCCCC1,inactive: > 100 µM
8,CCOC(=O)C(=O)Nc1ccc([N+](=O)[O-])cc1C#N,inactive: > 100 µM
9,CN(C)CCCNc1c2c(=O)n(C)c(=O)nc-2n(C)c2ccccc12,inactive: 3.78 µM
10,CCOC(=O)c1sc2nc(SC)nc3c2c1NC(=O)CN3c1ccc(F)cc1,inactive: 25 µM
11,COc1cc(I)c2c3c1OC1C34CCN(C)C(C2)C4=CC(I)C1(OC)OC (stereo not given),inactive: 39.9 µM
12,Cc1ccc2c(c1)CNc1ccc(C)cc1CN2,inactive: > 100 µM
13,CC1CC(=O)N(N(C)C)C2(C#N)C(=O)N=C(N)C12C#N (stereo not given),inactive: > 100 µM
14,CNC1C(O)CC(OC2C/C=C(\C)C/C(C)=C/C=C/CCC(C)CNC(=O)/C=C/C=C/C2C)OC1C (stereo not given),active: 0.802 µM
15,CCCCc1ccc(NC(=N)N)cc1,inactive: 39.6 µM
16,CCCCCNC(=O)C1C(=O)N(CCCCC)C(=O)/C1=N\N (stereo not given),inactive: > 100 µM
17,c1ccc(P(CCP(CCP(c2ccccc2)c2ccccc2)c2ccccc2)CCP(c2ccccc2)c2ccccc2)cc1 (stereo not given),inactive: 6.85 µM
18,CCN1CC2=C(NC(=S)NC2c2ccc(Cl)cc2)/C(=C/c2ccc(Cl)cc2)C1 (stereo not given),inactive: > 100 µM
19,O=C(C1=CCC2(CC1)OCCO2)N(Cc1ccccc1)c1ccccc1I,inactive: 18 µM
20,O=C(C(Cl)=C(N1CCCCC1)N1CCCCC1)C(Cl)Cl,inactive: > 100 µM
21,CCc1cc(CCC(=O)Nc2ccccc2[N+](=O)[O-])nc(S)n1,inactive: > 100 µM
22,COc1c(C(=O)NCCN(CCNC(=O)c2cccc(-c3cccc(C(=O)N(C)C)c3OC)c2OC)CCNC(=O)c2cccc(-c3cccc(C(=O)N(C)C)c3OC)c2OC)cccc1-c1cccc(C(=O)N(C)C)c1OC,inactive: 45.3 µM

#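 Assay format: 96-well plates, 48-hour exposure. GI50 marks 50% less growth.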 Activity calls are given as the source filed them. Cut-off read from the data, not from the text of the source: active = GI50 up to about 1.1 µM and inactive = higher. Peptide text beside a SMILES is read from it. * marks the point of attachment. Boc = CC(C)(C)OC(=O)*
